TF-1 cell proliferation assay IC50 (NGF-induced), TF-1 cell proliferation assay, potency relative to BXhVH5VL1 and TF-1 cell proliferation assay, potency relative to MNAC13 data for seven molecules are collected here from patent US20170218087A1.

Changes are numbered by the printed parent chain. Names and notes keep the numbering of the source.

Sequences and labels used below:
B1: GBR VH5(V37A)VL1 (antibody, human IgG1, kappa)
heavy: EVKLLESGGGLVQPGGSLRLSCAASGFTFSTYTMSWARQTPGKRLEWVAYISKGGGSTYYPDTVKGRFTISRDNSKNTLYLQMNSLRAEDTAVYYCARGAMYGNDFFYPMDYWGQGTTVTVSS[human IgG1 constant region not listed]
light: EIVLTQSPATLSLSPGERATLSCSASSSVSYMHWYQQKPGQAPRLLIYTTSNLASGIPARFSGSGSGTDFTLTISSLEPEDFAVYYCHQWSSYPWTFGQGTKLEIKRTVAAPSVFIFPPSDEQLKSGTASVVCLLNNFYPREAKVQWKVDNALQSGNSQESVTEQDSKDSTYSLSSTLTLSKADYEKHKVYACEVTHQGLSSPVTKSFNRGEC
B2: GBR VH3(V37A)VL1 (antibody, human IgG1, kappa)
heavy: B1 heavy with K3Q, R98K
light: B1 light
B3: GBR VH5(K3Q, V37A)VL1 (antibody, human IgG1, kappa)
heavy: B1 heavy with K3Q
light: B1 light
B4: GBR VH5(V37A)VL3 (antibody, human IgG1, kappa)
heavy: B1 heavy
light: B1 light with E1Q, A42S, A59S, D69F, F70Y, Q99G
B5: BXhVH5VL1 (antibody, human IgG1, kappa)
heavy: B1 heavy with A37V
light: B1 light
B6: GBR VH5(K3Q, V37A)VL1 IGHG4 S228P (antibody, human IgG4 S228P, kappa)
heavy: EVQLLESGGGLVQPGGSLRLSCAASGFTFSTYTMSWARQTPGKRLEWVAYISKGGGSTYYPDTVKGRFTISRDNSKNTLYLQMNSLRAEDTAVYYCARGAMYGNDFFYPMDYWGQGTTVTVSSASTKGPSVFPLAPCSRSTSESTAALGCLVKDYFPEPVTVSWNSGALTSGVHTFPAVLQSSGLYSLSSVVTVPSSSLGTKTYTCNVDHKPSNTKVDKRV[human IgG4 Fc with S228P (EU numbers) not listed]
light: B1 light
B7: GBR VH3(V37A)VL3 (antibody, human IgG1, kappa)
heavy: B1 heavy with K3Q, R98K
light: B1 light with E1Q, A42S, A59S, D69F, F70Y, Q99G

In this assay the target is cell surface TrkA on the human erythroleukemic cell line TF-1 (human), P04629. Kind of assay: cell-based or functional assay.
Chain of cell surface TrkA on the human erythroleukemic cell line TF-1 (human), P04629 (P04629 33-796): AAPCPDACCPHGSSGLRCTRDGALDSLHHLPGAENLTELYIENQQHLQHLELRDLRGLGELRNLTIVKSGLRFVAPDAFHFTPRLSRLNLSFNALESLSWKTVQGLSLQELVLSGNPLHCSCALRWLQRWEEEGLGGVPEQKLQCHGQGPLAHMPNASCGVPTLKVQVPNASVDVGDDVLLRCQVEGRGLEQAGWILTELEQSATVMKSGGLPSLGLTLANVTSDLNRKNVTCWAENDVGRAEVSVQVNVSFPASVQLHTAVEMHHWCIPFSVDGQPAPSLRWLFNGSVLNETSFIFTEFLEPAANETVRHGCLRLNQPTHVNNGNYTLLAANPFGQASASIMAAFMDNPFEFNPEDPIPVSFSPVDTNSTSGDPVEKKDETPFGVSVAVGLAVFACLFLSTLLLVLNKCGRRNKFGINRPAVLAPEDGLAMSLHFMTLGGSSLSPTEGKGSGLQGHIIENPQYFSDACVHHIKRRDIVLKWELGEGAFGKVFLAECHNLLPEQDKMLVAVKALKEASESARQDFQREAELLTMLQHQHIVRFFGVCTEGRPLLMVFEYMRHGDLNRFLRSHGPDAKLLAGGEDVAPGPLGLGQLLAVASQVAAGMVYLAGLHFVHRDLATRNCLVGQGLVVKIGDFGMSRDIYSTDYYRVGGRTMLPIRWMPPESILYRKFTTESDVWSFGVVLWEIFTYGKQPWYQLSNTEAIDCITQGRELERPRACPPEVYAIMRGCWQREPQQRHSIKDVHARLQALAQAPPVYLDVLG
Molecule B1 yielded a TF-1 cell proliferation assay IC50 (NGF-induced) of 0.075 µg/mL; a TF-1 cell proliferation assay, potency relative to BXhVH5VL1 of 10 fold; a TF-1 cell proliferation assay, potency relative to MNAC13 of 3 fold.

In turn, B2 displayed a TF-1 cell proliferation assay IC50 (NGF-induced) of 0.15 µg/mL.

The molecule B3 yielded a TF-1 cell proliferation assay IC50 (NGF-induced) of 0.15 µg/mL.

As for B4, the TF-1 cell proliferation assay IC50 (NGF-induced) turned out to be 0.22 µg/mL.

Molecule B5 displayed a TF-1 cell proliferation assay IC50 (NGF-induced) of 0.73 µg/mL.

On to B6, for which the TF-1 cell proliferation assay IC50 (NGF-induced) turned out to be 0.15 µg/mL.

On to B7, for which the TF-1 cell proliferation assay IC50 (NGF-induced) was 0.29 µg/mL.
